Some of the results follow. The energies were worked out here from pooled read counts, against the library average; single values are noisy.

In the test the target is T1, Pho4 (S. cerevisiae) (UniProt P07270).
T1 sequence: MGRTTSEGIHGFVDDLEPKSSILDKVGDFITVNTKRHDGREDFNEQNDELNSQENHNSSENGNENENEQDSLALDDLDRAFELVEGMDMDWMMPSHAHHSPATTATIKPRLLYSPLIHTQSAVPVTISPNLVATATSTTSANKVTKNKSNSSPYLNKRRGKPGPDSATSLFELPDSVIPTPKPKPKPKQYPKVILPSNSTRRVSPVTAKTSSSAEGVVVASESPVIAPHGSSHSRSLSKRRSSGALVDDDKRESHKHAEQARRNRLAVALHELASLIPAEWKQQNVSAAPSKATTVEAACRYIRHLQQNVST
Put plainly: relative binding free energy (BET-seq); higher = weaker binding. The conditions noted are these: reference: library average.
For TATAGCACGTGTGTTT, the “relative binding free energy” value was -0.06 kcal/mol.

For CGGGGCACGTGGTAGA, the “relative binding free energy” value is -0.08 kcal/mol.

In the case of TTGAGCACGTGTATGC, the “relative binding free energy” value was -0.01 kcal/mol.

As for CGTGTCACGTGGGTGT, the “relative binding free energy” value turned out to be 0.04 kcal/mol.

As to ATGTGCACGTGCGGGA, the “relative binding free energy” value is -0.04 kcal/mol.

As for TTTGGCACGTGAGGAT, the “relative binding free energy” value stood at 0.16 kcal/mol.

As for TTTGTCACGTGAGTAT, the “relative binding free energy” value turned out to be 0.31 kcal/mol.

For the sequence AAGGTCACGTGAATTG, the “relative binding free energy” value came to 0.19 kcal/mol.

As to GGTCTCACGTGTGGAT, the “relative binding free energy” value worked out at 0.24 kcal/mol.

Turning to GAGGGCACGTGCATGG, the “relative binding free energy” value is -0.16 kcal/mol.

For ATTTGCACGTGTGGTG, the “relative binding free energy” value is 0.14 kcal/mol.

Consider CTGTTCACGTGTAGTG, for which the “relative binding free energy” value stood at 0.15 kcal/mol.

For TGGGGCACGTGTGCCT, the “relative binding free energy” value is -0.06 kcal/mol.

For the sequence AGGTTCACGTGACTGG, the “relative binding free energy” value turned out to be 0.27 kcal/mol.

For the sequence GTATTCACGTGTTACT, the “relative binding free energy” value stood at 0.19 kcal/mol.

As for TATTGCACGTGGAGAG, the “relative binding free energy” value was -0.1 kcal/mol.

Take TTATTCACGTGGTATA: the “relative binding free energy” value was 0.23 kcal/mol.

Turning to TGTGTCACGTGATTGC, the “relative binding free energy” value is -0.02 kcal/mol.

Regarding TCTATCACGTGAGGTT, the “relative binding free energy” value was determined as 0.35 kcal/mol.

For AAGGTCACGTGTTGAT, the “relative binding free energy” value is 0.08 kcal/mol.

In the case of TGTTTCACGTGCATAG, the “relative binding free energy” value was 0.21 kcal/mol.

With GTGACCACGTGCGTTG, the “relative binding free energy” value turned out to be 0.03 kcal/mol.

Regarding GGTGGCACGTGGGTAA, the “relative binding free energy” value was -0.18 kcal/mol.

For the sequence TTTTACACGTGAGTTC, the “relative binding free energy” value came to 0.28 kcal/mol.

Regarding GATGACACGTGTTTTG, the “relative binding free energy” value amounted to 0.01 kcal/mol.

For the sequence GGGATCACGTGACGGT, the “relative binding free energy” value turned out to be 0.3 kcal/mol.

In the case of GTAAGCACGTGGGGTT, the “relative binding free energy” value was -0.2 kcal/mol.

Take TTAATCACGTGTCGGT: the “relative binding free energy” value was 0.13 kcal/mol.

TGAATCACGTGATAGT: the “relative binding free energy” value is 0.2 kcal/mol.

For GAAATCACGTGTGGGG, the “relative binding free energy” value stood at 0.23 kcal/mol.

On to TATAGCACGTGTTCAT, for which the “relative binding free energy” value is -0.14 kcal/mol.

Consider GGCTTCACGTGTTCGG, for which the “relative binding free energy” value came to 0.29 kcal/mol.

For the sequence GTGGTCACGTGTTTTA, the “relative binding free energy” value was 0.16 kcal/mol.

Turning to GGACGCACGTGTGTAT, the “relative binding free energy” value was 0.02 kcal/mol.

For the sequence ATGGTCACGTGTATCA, the “relative binding free energy” value is 0.17 kcal/mol.

On to AGGATCACGTGGTCGT, for which the “relative binding free energy” value worked out at 0.02 kcal/mol.

Turning to TTCGACACGTGGCAGG, the “relative binding free energy” value amounted to 0.1 kcal/mol.

Turning to GGCTGCACGTGGATAT, the “relative binding free energy” value was determined as 0.14 kcal/mol.

On to GTTCTCACGTGAGGAG, for which the “relative binding free energy” value is 0.33 kcal/mol.

For the sequence ACTTGCACGTGTATTG, the “relative binding free energy” value came out at 0.04 kcal/mol.

On to TTAAGCACGTGGCGTT, for which the “relative binding free energy” value is -0.08 kcal/mol.

With CGCGTCACGTGTAGGG, the “relative binding free energy” value was -0.12 kcal/mol.

In the case of TTTAACACGTGTAGAT, the “relative binding free energy” value is 0.31 kcal/mol.

In the case of GTGAACACGTGGTCGG, the “relative binding free energy” value is -0.01 kcal/mol.

As for TGTTTCACGTGCACAG, the “relative binding free energy” value amounted to 0.36 kcal/mol.

Regarding GGATTCACGTGTTTGT, the “relative binding free energy” value turned out to be 0.41 kcal/mol.

Consider TTTCTCACGTGATAGG, for which the “relative binding free energy” value was 0.23 kcal/mol.

As for TAATGCACGTGTATGA, the “relative binding free energy” value amounted to 0.05 kcal/mol.

As to TGTTACACGTGCGCGG, the “relative binding free energy” value was 0.1 kcal/mol.

With CCGTTCACGTGTGGTG, the “relative binding free energy” value stood at 0.24 kcal/mol.

For ACATGCACGTGGGGGT, the “relative binding free energy” value is -0.24 kcal/mol.

On to TGTAACACGTGATGAT, for which the “relative binding free energy” value came to 0.09 kcal/mol.

Turning to ATCGGCACGTGGGCGT, the “relative binding free energy” value is -0.18 kcal/mol.

With ATATGCACGTGGGCGG, the “relative binding free energy” value was -0.24 kcal/mol.

Consider ATTATCACGTGGTGGA, for which the “relative binding free energy” value came to 0.01 kcal/mol.

With GATTCCACGTGTGGTT, the “relative binding free energy” value was found to be 0.27 kcal/mol.

Take CTGTGCACGTGGGTAC: the “relative binding free energy” value was -0.09 kcal/mol.

Take AGTAGCACGTGGGGTT: the “relative binding free energy” value was -0.19 kcal/mol.

Regarding ATGTGCACGTGGTCGA, the “relative binding free energy” value is -0.17 kcal/mol.

As to CTTGGCACGTGCGATT, the “relative binding free energy” value was -0.03 kcal/mol.

Regarding GGCAACACGTGGGGGT, the “relative binding free energy” value is -0.02 kcal/mol.

On to TGTTTCACGTGTTCCT, for which the “relative binding free energy” value came to 0.28 kcal/mol.

With ATGTACACGTGAAGTT, the “relative binding free energy” value was determined as 0.35 kcal/mol.

Take ATAGTCACGTGTAGAA: the “relative binding free energy” value was 0.15 kcal/mol.

On to TTATTCACGTGTTGAT, for which the “relative binding free energy” value worked out at 0.32 kcal/mol.

On to TCTCTCACGTGTGTAT, for which the “relative binding free energy” value is 0.27 kcal/mol.

For the sequence GAATTCACGTGAATTT, the “relative binding free energy” value worked out at 0.42 kcal/mol.

TGTTTCACGTGGTCGT: the “relative binding free energy” value was 0.24 kcal/mol.

Consider TAGGTCACGTGTTTTA, for which the “relative binding free energy” value was determined as 0.05 kcal/mol.

For GTTAGCACGTGAGTCG, the “relative binding free energy” value amounted to 0.31 kcal/mol.

As for TTTTACACGTGTAGCT, the “relative binding free energy” value is 0.15 kcal/mol.

As for ACTTTCACGTGGTGGG, the “relative binding free energy” value amounted to 0.22 kcal/mol.

As for GGTTTCACGTGAACTG, the “relative binding free energy” value amounted to 0.47 kcal/mol.

The values are drawn from the BET-seq Pho4 binding data (Le et al. 2018).
